This passage reports self-cleavage results from the RNAGym collection of RNA variant scans (doi:10.7554/elife.90254).

The source gives no read counts; variants with many changes may rest on few reads.

B1: LINE1-full (parent)
chain: UACGUAGGUGGUUUUCCCCUGAUAGUGCUAAGGGGGCCUGGAAGUUUGGACUGGGCAGAGCUCAACACAGCGUGGCAAAGUGGCUGUGGCUAGACUGCCUCUCUGGAUUCCUCGUCACUCAGCAGGGCAUCUCUGAGAGAAAUGCC

Variants of B1 are the subject of the data set. The experiment in a line: self-cleavage, relative activity (ratio to wild type); higher = more cleavage; in vitro, sequencing; the parent is a self-cleaving ribozyme.
Consider UACGUAGGUGGCUUUCCCCUGAUAGUGCUAAGGGGGCCUGGAAGUUUGGACUGGGCAGAGCUCAACACAGCGUGGCAAAGUGGCUGUGGCUAGACUGCCUCUCUGGAUUCCUCGUCACUCAGCAGGGCAUCUCUGGGAGAAGUGCC [U12C A136G A142G], for which the self-cleavage is 0.26.
To UACGUAGGUGGCUUUCCCCUGAUAGUGCUAAGGGGGCCUGGAAGUUUGGACUGGGCAGAGCUCAACACAGCGUGGCAAAGUGGCUGUGGCUAGACUGUCUCUCUGGAUUCCUCGUCACCCAGCAGGGCAUCUCUGAGAGAAAUGCC [U12C C98U U119C] belongs 0.51; to UACGUAGGUGGCUUUCCCUUGAUAGUGCUAAGGGGGCCUGGAAGUCUGGACUGGGCAGAGCUCAACACAGCGUGGCAAAGUGGCUGAGGCUAGACUGCCUCUCUGGAUUCCUCGUCACUCAGCAGGGCAUCUCUGAGAGAAAUGCC [U12C C19U U46C U87A], 0.25.
To UACGUAGGUGGCUUUCCCCUGAUAGUGCUAAGGGGGCCUCGAAGUUUGGACAGGGCAGAGCUCAACACAGCGAGGCAAAGUGGCUGUGGCUAGACUGCCUCUCUGGAUUCCUCGUCACUCAGCAGGGCAUCUCUGAGAGAAAUGCC [U12C G40C U52A U73A] belongs 1.91; to UACGUAGGUGGCUUUCCCCUGAUAGUGCUAAGGGGGCCUGGAAGUUUGGACUGGGCAGAGCUCAACACAGCGUGGCAAAGUGGCUGUGGCUAGACUGCCUCUCUGGAUUCCUCGUCACUCAGCAGGGCUUCUCUGAGAGAGAUGCC [U12C A129U A141G], 1.61.
Next, UACGUAGGUGGCUUUCACCUGAUAGUGCUAAGGGGGCCUGGAAGUCUGGACUGGGCAGAGCUCAACACAGCGUGGCAAAGUGGCUGUGGCUAGACUGCCUCUCUGGAUUCCUCGUCACUCAGCAGGGCAUCUCUGAGAGAAAUGCC [U12C C17A U46C]: 1.02; UACGUAGGUGGCUUUCCCUCGAUAGUGCUAAGGGGGCCUGGAAGUUUGGACUGGGCAGAGCUCAACACAGCGUGGCAAAGUGGCUGUGGCUAGACUGCCUCUCUGGAUUCCUCGUCACUCAGCGGGGCAUCUCUGAGAGAAAUGCC [U12C C19U U20C A124G]: 1.41; UACGUAGGUGGCUUUCCUCUGAUAGUGCUAAGGGGGCCUGGAAGUUUGGACUGGGCAGAGCUCAACACAGCGUGGCAAAGUGGCCGUGGCUAGACUGCCUCUCUGGAUUCCUCGUCACUCAGCAGGGCAUCUCUGAGAGAAAUGCC [U12C C18U U85C]: 0.2.
Consider UACGUAGGUGGCUUUCCCCUGAUAGUGCUAAGGGGGCCUGGAAGUUUGGACUGGGCAGAGCUCAACACAGCGUGGCAAAGUGGCUGUGGCUAGACUGCCUCUCUGGAUUCCUCGUCACUCAGCAGGGCAUCUCUGAGAGGAGUGCC [U12C A140G A142G], for which the self-cleavage was determined as 0.64.
To UACGUAGGUGGCUUUCCCCUGAUAGUGCUAAGGGGCCCUGGAAGUUUGGACUGGGCAGAGCUCAACACAGCGUGGCAAAGUGGCUGUGGCUAGACUGCCUCUCUGGAUUCCUCGUCGCUCAGCAGGGCAUCUCUGAGAGAAAUGCC [U12C G36C A117G] belongs 2.2; to UACGUAGGUGGCUUUCCCCUGAUAGUGCUAAGGGGGCCUGGAAGUUUGGACUGGGCAGAGCUCAACACAGCGUGGCAAAGUGGCUGUGGCUAGACUGCCUCUCUGGGUUCCUCGUCACUCAGCUGGGCAUCUCUGAGAGAAAUGCC [U12C A107G A124U], 1.21; to UACGUAGGUGGCUUUCCCCUGAUAGUGCUAAGGGGGCCUGGAAGUUUGGACUGGGCAGAGCUCAACACAGCGUGGCAAAGUGGCUGUGGCUAGACUGCCUCUCUGGGUUCCUCGUCACUCAGCAGGGCAUCUCUGAGAGAAAAGCC [U12C A107G U143A], 0.59.
To UACGUAGGUGGCUUUCCCCUGAUAGUGCUAAGGGGGCCUGGAAGUUUGGACUGGGCAGAGCUCAACACAGCGUGGCAAAGUGGCUGUGGCUAGACUGCCUUUCUGGAUUCCUCGCCACUCAGCAGGGCACCUCUGAGAGAAAUGCC [U12C C101U U115C U130C] belongs 2.37; to UACGUAGGUGGCUUUCCCCUGAUAGUGCUAAGGGGGCCUGGAAGUUUGGACUGGGCAGAGCUCAACACAGCGUGGCAAAGUGGCUGUGGCUAGACUGCCUCUCUGGAUUCCUCGUCGCUCAGCAGGGCACCUCUGAGAGAAAUGCC [U12C A117G U130C], 1.8.
Next, UACGUAGGUGGCUUUCCCCUGAUAGUGCUAAGGGGGCCUGGAAGUUUGGAAUGGGCAGAGCUCAACACAGCGUGGCAAAGUGGCUGUGGCUAGACUGCCCCUCUGGAUUCCUCGUCACUCAGCAGGGCAUCUCUGAGAGAAAUGCC [U12C C51A U100C]: 1.73.
As for UACGUAGGUGGCUUUCCCCUGAUAGUGCUAAGGGGGCCUGUAAGUUUGGACUGGGCAGAGCUCAACACAGCGUGGCAAAGUGGCUGUGGCUAGACUGCCUCUCUGGAUUCCUCGUCACUCAGCAGGGCAUCUCUGGGAGAAAUGCC [U12C G41U A136G], the self-cleavage was found to be 1.26.
For the variant UACGUAGGUGGCUUUCACCUGAUAGUGCUAAGGGGGCCUGGAAGUUUGGACUGGGCAGAGCUCAACACAGCGUGGCAAAGCGGCUGUGGCUAGACUGCCUCUCUGGAUUCCUCGUCACUCAGCAGGGCAUCUCUGAGAGAAAUGCC [U12C C17A U81C], the self-cleavage is 1.7.
With UACGUAGGUGGCUUUCCCCUAAUAGUGCUAAGGGGGCCUGGAAGUUUGGACUGGGCAGAGCUCAACACAGCGUGGCAAAGUGGCUGUGGCUAGACUGCCUCUCUGGAUUCCUCGUCACUCAGCAGGGCAUCUCUGAGAGAGAUGCC [U12C G21A A141G], the self-cleavage came out at 1.38.
As for UACGUAGGUGGCUUUCCCCUGAUAGUGCUAAGUGGGCCUGGAAGUUUGGACUGGGCAGAGCUCAACACAGCGUGGCAAAGUGGCUGUGGCUGGACUGCCUCUCUGGAUUCCUCGUCACUCAGCAGGGCAUCUCUGAGAGAAACGCC [U12C G33U A92G U143C], the self-cleavage came out at 0.2.
Take UACGUAGGUGGCUUUCCCCUGAUAGUGCUAAGAGGGCCUGGAAGUUUGGACUGGGCAGAGCUCAACACGGCGUGGCAAAGUGGCUGUGGCUAGACUGCCUCUCUGGAUUCCUCGUCACUCAGCAGGGCAUCUCUGAGAGAAAUGCC [U12C G33A A69G]: the self-cleavage was found to be 0.84.
To UACGUAGGUGGCUUUCCCCUGAUAGUGCUAAAGGGGCCUGGAAGUCUGGACUGGGCGGAGCUCAACACAGCGUGGCAAAGUGGCUGUGGCUAGACUGCCUCUCUGGAUUCCUCGUCACUCAGCAGGGCAUCUCUGAGAGAAAUGCC [U12C G32A U46C A57G] belongs 0.66.
Next, UACGUAGGUGGCUUUCCCCUGAUAGUGCUAAGGGGGCCUAGAAGUUUGGACUGGGCAGAGCCCAACACAGCGUGGCAAAGUGGCUGUGGCUAGACUGCCUCUCUGGAUUCCUCGUCACUCAGCAGGGCAUCUCUGAGAGAAAUGCC [U12C G40A U62C]: 0.06.
UACGUAGGUGGCUUUCCCCUGAUAGUGCUAAGUGGGCCUGGAAGUUUGGACUGGGCAGAGCUCAACACAGCGUGGCAAAGUGGCUGUGGCUAGACUGCCUCUCUGGGUUCCUCGUCACUCAGCAGAGCAUCUCUGAGAGAGAUGCC [U12C G33U A107G G126A A141G]: the self-cleavage came out at 2.04.
With UACGUAGGUGGCUUUCCCCUGAUAGUGCUAAGGGGGUCUGGGAGUUUGGGCUGGGCAGAGCUCAACACAGCGUGGCAAAGUGGCUGUGGCUAGACUGCCUCUCUGGAUUCCUCGUCACUCAGCAGGGCAUCUCUGAGAGAAAUGCC [U12C C37U A42G A50G], the self-cleavage worked out at 0.82.
On to UACGUAGGUGGCUUUCCCCUGAUAGUGCUAAGGGGGCCUGGAAGUUUGGACUGGGCAGAGCUCAACACAGCGUGGCAAAGUGGCUGUGGCUAGACUGCCUCUCUGGAUUCCUCGUCACUCAGCAGGGCGUCCCUGAGAGAAAUGCC [U12C A129G U132C], for which the self-cleavage worked out at 1.43.
For the variant UACGUAGGUGGCUUUCCCCUGAUAGUGCUAAGGGGGCCUGGAAGUUUGGACUGGGCAGAGGUCAACACAGCGUGGCAAAGUGGCUGUGGCUAGACUGCCUCUCUGGAUUCCUCGUCACCCAGCAGGGCAUCUCUGAGAGAAAUGCC [U12C C61G U119C], the self-cleavage stood at 0.
Next, UACGUAGGUGGCUUUCCUCUGAUAGUGCUAAGGGGGCCUGGAAGUUUGGACUGGGCAGAGCUCAACACAGCGUGGCAAAGUGGCUGUGGCUAGACUGCCUCUCUGGAUUCCUCGUCACUCAGCAGGGCAUCUCUGAGAGAAAAGCC [U12C C18U U143A]: 0.84; UACGUAGGUGGCUUUCCCCUGAUAGUGGUAAGGGGGCCUGGAAGUUUGGACUGGGCAGAGCUCAACACAGCGUGGCAAAGUGGCUGUGGCUAGACUGCCUCUCUGGAUUCCUCGUCACCCAGCAGGGCAUCUCUGAGAGAAAUGCC [U12C C28G U119C]: 0.88.
To UACGUAGGUGGCUUUCCCCUGAUAGUGCUAAGGGGGCCUGGAAGUUUGGACUGGGCAGAGCUCAACACAGCGUGGCAAAGUGGCUGUGGCUAGACUGCUUCUCCGGAUUCCUCGUCACUCAGCAGGGCAUCUCUGAGAGAAAUGCC [U12C C99U U104C] belongs 2.77; to UACGUAGGUGGCUUUCCCCUGAUAGUGCUAAGGGGGCUUGGAAGUUUGGACUGGGCAGGGCUCAACACAGCGUGGCAAAGUGGCUGUGGCUAGACUGCCUCUCUGGAUUCCUCGUCACUCAGCAGGGCAUCUCUGAGAGAGAUGCC [U12C C38U A59G A141G], 0.17; to UACGUAGGUGGCUUUCCCCUGAUAGUGCUAAGGGGGCCUGGAAGUUUGGACUGGGCAGAGCUCAACACAGCGUGGCAAAGUGGCUGUGGCUAGACUGCCUCUCUGGAUUCCUCGUCACUCUGCAGGGCAUCUCUGAGAGAGAGGCC [U12C A121U A141G U143G], 1.82.
Next, UACGUAGGUGGCUUUCCCCUGAUAGUGCUAAGGGGGCCUGGAAGUUUGGACUGGGCAGAGCUCAACACAGCGUGGCAAAGUGGCUGUGGCUAGACUGCCUCUCUGGUUUCCUCGUCUCUCAGCAGGGCAUCUCUGAGAGAAAUGCC [U12C A107U A117U]: 1.94; UACGUAGGUGGCUUUCCCCUGAUAGUGCUAAGGGGGCCUGGAAGUUUGGACUGGGUAGAGCUCAACACGGCGUGGCAAAGUGGCUGUGGCUAGACUGCCUCUCUGGAUUCCUCGUCGCUCAGCAGGGCACCUCUGAGAGAAAAGCC [U12C C56U A69G A117G U130C U143A]: 0.46; UACGUAGGUGGCUUUCCCCUGAUAAUGCUAAGGGGGCCUGGAAGAUUGGACUGGGCAGAGCUUAACACAGCGUGGCAAAGUGGCUGUGGCUAGACUGCCUCCCUGGAUUCCUCGUCACUCAGCAGGGCAUCUCUGAGAGAAUUGCC [U12C G25A U45A C63U U102C A142U]: 0.26.
With UACGUAGGUGGCUUUCCCCUGAUAGUGAUAAGGGGGCCUGGAAGUUUGGACUGGGCAGAGCUCAACACAGCGUGGCAAAGUGGCUGUGGCUGGACUGCCUCUCUGGAUUCCUCGUCACUCAGCAGGGCAUCUCUGAGAGAAAUGCC [U12C C28A A92G], the self-cleavage stood at 0.19.
Next, UACGUAGGUGGCUUUCCCCUGAUAGUGCUAAGGUGGCCUGGAAGUUUGGACUGGGCAGAGCUCAACACAGCGUGGCAAAGUGGCUGUGGCUAGACUGCCUCUCUGGAUUCCUCGUCACCCAGCAGGGCAUCUCUGAGAGAAAUGCC [U12C G34U U119C]: 0.97.
To UACGUAGGUGGCUUUCCCCUGAUAGUGCUAAGGGGGCCUGGAAGUUUGGACUGGGCAGAGCUCAACACAGCGUGGCAAAGUGGCUGUGGUUAGACUGCCUCUCUGGGUUCCUCAUCACUCAGCAGGGCAUCUCUGAGAGAAAUGCC [U12C C90U A107G G114A] belongs 0.02; to UACGUAGGUGGCUUUCCCCUGAUAGUGCUAAGGGGGCCUGGAAGUUUGGACUGGGGAGAGCUCAACACAGCGUGGCAAAGUGGCUGUGGCUAGACUGCCUCUCUGGAUUCCUCGUCACUCAGCAGGGCAUCCCUGAGAGAUAUGCC [U12C C56G U132C A141U], 0.08.
To UACGUAGGUGGCUUUCCCCUAAUAGUGCUAAGGGGGCCUGGAAGUUUGGACUAGGCAGAGCUCAACACAGCGUGGCAAAGUGGCUGUGGCUAGACUGCCUCUCUGGAUUCCUCGUCACUCAGCAGGGCAUCUCUGAGAGAAAUGCC [U12C G21A G53A] belongs 1.75.
